Drawing on a collection of fitness landscapes (doi:10.1126/science.1257360), this text covers enrichment ratio for 153 variants.

B1: PhoQ; a variant is named by its letters at X, in order, P23837 (parent)
chain: MKKLLRLFFPLSLRVRFLLATAAVVLVLSLAYGMVALIGYSVSFDKTTFRLLRGESNLFYTLAKWENNKLHVELPENIDKQSPTMTLIYDENGQLLWAQRDVPWLMKMIQPDWLKSNGFHEIEADVNDTSLLLSGDHSIQQQLQEVREDDDDAEMTHSVAVNVYPATSRMPKLTIVVVDTIPVELKSSYMVWSWFIYVLSANLLLVIPLLWVAAWWSLRPIEALAKEVRELEEHNRELLNPATTRELTSLVRNLNRLLKSERERYDKYRTTLTDLTHSLKTPLXXLQXXLRSLRSEKMSVSDAEPVMLEQISRISQQIGYYLHRASMRGGTLLSRELHPVAPLLDNLTSALNKVYQRKGVNISLDISPEISFVGEQNDFVEVMGNVLDNACKYCLEFVEISARQTDEHLYIVVEDDGPGIPLSKREVIFDRGQRVDTLRPGQGVGLAVAREITEQYEGKIVAGESMLGGARMEVIFGRQHSAPKDE

The list shows a part of the results. A value given as a limit tells only on which side of the number the result lay.

The variants in this test derive from B1. The test can be described thus: enrichment ratio after two sorts for PhoP signalling (ratio (wild type AVST 3.29)); higher = more functional. Conditions: with PhoP (E. coli).
For the variant QVSC, the enrichment ratio worked out at 1.05. The result for MYAP reads at most 0.25; that for FKPH, at most 0.25. With ECSM the figure was at most 0.25; with DHPI, at most 0.25. The result for NDEC reads at most 0.25; that for YHFQ, at most 0.25. As to GHMP, the enrichment ratio is at most 0.25. The result for PGWA reads at most 0.25.

For the variant AGVG, the enrichment ratio was found to be 1.3. With EAPK the figure was at most 0.25; with ETFY, at most 0.25; with LFFF, at most 0.25. With NSYP the figure was 1.33; with HMKR, at most 0.25.

As to KTKA, the enrichment ratio was at most 0.25. On to LCEL, for which the enrichment ratio is at most 0.25. With WICG the figure was at most 0.25; with TRDP, at most 0.25; with ARTH, at most 0.25.

In the case of VEME, the enrichment ratio was at most 0.25. The result for STQR reads at most 0.25; that for YWMP, at most 0.25; that for VIMD, at most 0.25. On to IFNF, for which the enrichment ratio was at most 0.25. The result for KHTE reads at most 0.25. The result for DIWH reads at most 0.25. With WKRG the figure was at most 0.25. SFVR: the enrichment ratio is at most 0.25. Turning to SVAV, the enrichment ratio was 7.92.

As to GHGV, the enrichment ratio is at most 0.25. Turning to PNPM, the enrichment ratio is at most 0.25. Take NMHE: the enrichment ratio is at most 0.25. The result for IKES reads at most 0.25; that for DSSD, at most 0.25; that for PMCQ, at most 0.25. The result for SCLV reads 9.82; that for REER, at most 0.25. Regarding ETVQ, the enrichment ratio was at most 0.25. Consider FTFV, for which the enrichment ratio is at most 0.25. With ANLT the figure was 4.56; with DTMC, at most 0.25. With YRWC the figure was at most 0.25; with PLWE, at most 0.25; with LQST, at most 0.25.

Turning to QDES, the enrichment ratio was at most 0.25. With PPLG the figure was at most 0.25; with NMFI, at most 0.25. As for VTEI, the enrichment ratio was at most 0.25.

For the variant QIHR, the enrichment ratio is at most 0.25. The result for YSYA reads at most 0.25. The result for NKER reads at most 0.25; that for KGDA, at most 0.25; that for SVQN, at most 0.25. The result for GMST reads 0.716; that for AHMV, at most 0.25. Consider HTNW, for which the enrichment ratio was at most 0.25. The result for QDPS reads at most 0.25; that for AFKD, at most 0.25; that for EFLE, at most 0.25.

As to HMGE, the enrichment ratio is at most 0.25. The result for DLYK reads at most 0.25. The result for LWCQ reads at most 0.25. The result for YHTL reads at most 0.25. On to QSHS, for which the enrichment ratio is at most 0.25.

Regarding SASC, the enrichment ratio came to 8.6. EWHP: the enrichment ratio is at most 0.25. With IGIM the figure was at most 0.25; with DITY, at most 0.25. With MSLH the figure was at most 0.25.

On to MITS, for which the enrichment ratio was at most 0.25. With MVYE the figure was at most 0.25; with LVMT, at most 0.25; with PVIH, at most 0.25. With WCLI the figure was at most 0.25; with FQRK, at most 0.25. Turning to FNVN, the enrichment ratio was 1.2.

For the variant VKKA, the enrichment ratio is at most 0.25. The result for VNVS reads 0.476.

On to GSTY, for which the enrichment ratio was 0.758. Turning to VWYP, the enrichment ratio is at most 0.25. The result for HWFP reads at most 0.25; that for QIRI, at most 0.25. The result for PGTF reads at most 0.25; that for NQIV, at most 0.25; that for KTWR, at most 0.25.

With GWSP, the enrichment ratio was at most 0.25. The result for QISQ reads 4.86; that for KDWS, at most 0.25; that for IFND, at most 0.25. The result for VNQF reads at most 0.25. As for NVGF, the enrichment ratio is at most 0.25. The result for DQVA reads at most 0.25; that for SGIQ, 11.9.

In the case of QSFI, the enrichment ratio was determined as 4.06. The result for VIVC reads at most 0.25; that for LVTH, at most 0.25.

In the case of YKVY, the enrichment ratio is at most 0.25. With DMNY, the enrichment ratio is at most 0.25. Take MTHA: the enrichment ratio is at most 0.25. SLVD: the enrichment ratio was at most 0.25. The result for LINN reads at most 0.25; that for EGGA, at most 0.25. Consider HEGA, for which the enrichment ratio was at most 0.25. The result for RINK reads at most 0.25; that for MHSD, at most 0.25. With LCPL the figure was at most 0.25. With NAHQ the figure was at most 0.25; with IIEL, at most 0.25; with GPIM, at most 0.25. As to YENW, the enrichment ratio was at most 0.25. Turning to QLPA, the enrichment ratio is at most 0.25. The result for RDAR reads at most 0.25; that for MNLD, at most 0.25. The result for NNVW reads at most 0.25; that for RDPA, at most 0.25; that for TDPQ, at most 0.25.

For ISVC, the enrichment ratio was at most 0.25. With VEIH the figure was at most 0.25; with AWVR, at most 0.25; with SFVI, at most 0.25. For the variant QCDW, the enrichment ratio was at most 0.25. With PASS the figure was at most 0.25. With PCFN the figure was at most 0.25; with PRKS, at most 0.25; with DHEW, at most 0.25. With DHVV the figure was at most 0.25; with YIVN, 0.608; with MELT, 5.98. On to FWKW, for which the enrichment ratio is at most 0.25. The result for GSSS reads 1.42. With TLKN the figure was at most 0.25. With DSEN the figure was at most 0.25. Turning to DANV, the enrichment ratio was at most 0.25.

In the case of YSWS, the enrichment ratio was at most 0.25.

For TSDR, the enrichment ratio was at most 0.25.

With RPFK, the enrichment ratio was at most 0.25. Regarding HQYK, the enrichment ratio is at most 0.25. As to HYLK, the enrichment ratio is at most 0.25.

With HAYS, the enrichment ratio is at most 0.25. The result for FDRW reads at most 0.25. With CTMT the figure was at most 0.25; with HIRD, at most 0.25. ECRS: the enrichment ratio is at most 0.25. With MRPD, the enrichment ratio was at most 0.25. With FHQS the figure was at most 0.25. With WTRH the figure was at most 0.25; with DFPQ, at most 0.25; with RCIM, at most 0.25. As for EQFQ, the enrichment ratio is at most 0.25. With NYID the figure was at most 0.25. On to SVKC, for which the enrichment ratio was at most 0.25. With GYPI the figure was at most 0.25.
